Measured values as given in the supplement of paper PMC4604168 (melanoma cell lines).
The list shows a part of the results. Repeats are few or missing, and single values can be far off.

Tested on: SkMel28
Experiment: cell count relative to DMSO control; melanoma cells; higher = more viable cells
Details: library dose: standard library concentration; 72 h; first compound 2 µM
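Further: cells treated in 1,536-well plates, then fixed and DAPI-stained, with nuclei counted from automated high-throughput microscope images.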

| Compound | cell count [%] |
| --- | --- |
| C[C@@H](N)c1ccc(C(=O)Nc2ccnc3[nH]ccc23)cc1 + CO[C@@H]1[C@H](N(C)C(=O)c2ccccc2)C[C@H]2O[C@]1(C)n1c3ccccc3c3c4c(c5c6ccccc6n2c5c31)C(=O)NC4 [Midostaurin] (partner dose 0.4 µM) | 43.1 |
| Cn1sc(=O)n(Cc2ccccc2)c1=O + Nc1cccc2c1CN(C1CCC(=O)NC1=O)C2=O [lenalidomide] (partner dose 5 µM) | 88.6 |
| Cn1sc(=O)n(Cc2ccccc2)c1=O + COc1cc2c(Oc3ccc4[nH]c(C)cc4c3F)ncnc2cc1OCCCN1CCCC1 [cediranib] (partner dose 2 µM) | 81 |
| C[C@@H](N)c1ccc(C(=O)Nc2ccnc3[nH]ccc23)cc1 + Cn1sc(=O)n(Cc2ccccc2)c1=O [TDZD-8] (partner dose 2 µM) | 73.1 |
| C[C@@H](N)c1ccc(C(=O)Nc2ccnc3[nH]ccc23)cc1 + CC(C)C[C@H](NC(=O)[C@H](Cc1ccccc1)NC(=O)c1cnccn1)B(O)O [Bortezomib] (partner dose 0.005 µM) | 17.8 |
| CCCCCCCCCCCCCCCCCCOP(=O)([O-])OC1CC[N+](C)(C)CC1 [Perifosine] + C#Cc1cccc(Nc2ncnc3cc(OCCOC)c(OCCOC)cc23)c1 [erlotinib] (partner dose 4 µM) | 49.1 |
| Cn1sc(=O)n(Cc2ccccc2)c1=O + CNC(=O)c1cc(Oc2ccc(NC(=O)Nc3ccc(Cl)c(C(F)(F)F)c3)cc2)ccn1 [sorafenib] (partner dose 2 µM) | 85.6 |
| CCCCCCCCCCCCCCCCCCOP(=O)([O-])OC1CC[N+](C)(C)CC1 [Perifosine] + C[C@]1(c2nc3c(C(N)=O)cccc3[nH]2)CCCN1 [Veliparib] (partner dose 7 µM) | 64.9 |
| Cn1sc(=O)n(Cc2ccccc2)c1=O + Cc1cc(Nc2cc(N3CCN(C)CC3)nc(/C=C/c3ccccc3)n2)n[nH]1 [ENMD2076] (partner dose 0.2 µM) | 60.7 |
| CCCCCCCCCCCCCCCCCCOP(=O)([O-])OC1CC[N+](C)(C)CC1 [Perifosine] + COc1ccc(C2=N[C@@H](c3ccc(Cl)cc3)[C@@H](c3ccc(Cl)cc3)N2C(=O)N2CCNC(=O)C2)c(OC(C)C)c1 [Nutlin-3] (partner dose 0.5 µM) | 52.2 |
| Cn1sc(=O)n(Cc2ccccc2)c1=O + Cn1c(=O)n(-c2ccc(C(C)(C)C#N)cc2)c2c3cc(-c4cnc5ccccc5c4)ccc3ncc21 [NVP-BEZ235] (partner dose 0.02 µM) | 54.4 |
| C[C@@H](N)c1ccc(C(=O)Nc2ccnc3[nH]ccc23)cc1 + Nc1nc(F)nc2c1ncn2[C@@H]1O[C@H](CO)[C@@H](O)[C@@H]1O [fludarabine] (partner dose 1 µM) | 0.758 |
| C[C@@H](N)c1ccc(C(=O)Nc2ccnc3[nH]ccc23)cc1 + O=C(Nc1cccc(Cl)c1)Nc1ncc(CCNc2ncnc3ccsc23)s1 [SNS314] (partner dose 0.004 µM) | 35.8 |
| Cn1sc(=O)n(Cc2ccccc2)c1=O + O=C(O)c1ccc2c(c1)nc(Nc1cccc(Cl)c1)c1ccncc12 [CX4945] (partner dose 2 µM) | 95.2 |
| Cn1sc(=O)n(Cc2ccccc2)c1=O + COc1ccc(Cl)c(Nc2nc3ccccc3nc2NS(=O)(=O)c2cccc(NC(=O)C(C)(C)N)c2)c1 [XL147] (partner dose 4 µM) | 98.7 |
| CCCCCCCCCCCCCCCCCCOP(=O)([O-])OC1CC[N+](C)(C)CC1 [Perifosine] + Cn1nnc2c(C(N)=O)ncn2c1=O [temozolomide] (partner dose 10 µM) | 66.4 |
| CCCCCCCCCCCCCCCCCCOP(=O)([O-])OC1CC[N+](C)(C)CC1 [Perifosine] + Clc1ccc(Nc2nnc(Cc3ccncc3)c3ccccc23)cc1 [vatalanib] (partner dose 10 µM) | 85.1 |
| C[C@@H](N)c1ccc(C(=O)Nc2ccnc3[nH]ccc23)cc1 + COc1cc(Nc2ncc(F)c(Nc3ccc4c(n3)NC(=O)C(C)(C)O4)n2)cc(OC)c1OC [Tamatinib] (partner dose 2 µM) | 44.2 |
| C[C@@H](N)c1ccc(C(=O)Nc2ccnc3[nH]ccc23)cc1 + COc1cc2c(Oc3ccc4[nH]c(C)cc4c3F)ncnc2cc1OCCCN1CCCC1 [cediranib] (partner dose 2 µM) | 83 |
